Laboratory results published in the supplement of paper PMC12217912.
Some of the results follow. The full chains were built here from the parent and the listed change. Values near 0.05 are background.

B1: TEV protease; numbered along this chain (parent)
chain: MGESLFKGPRDYNPISSSICHLTNESDGHTTSLYGIGFGPFIITNKHLFRRNNGTLVVQSLHGVFKVKDTTTLQQHLVDGRDMIIIRMPKDFPPFPQKLKFREPQREERICLVTTNFQTKSMSSMVSDTSCTFPSGDGIFWKHWIQTKDGQCGSPLVSTRDGFIVGIHSASNFTNTNNYFTSVPKNFMELLTNQEAQQWVSGWRLNADSVLWGGHKVFMVKPEEPFQPVKEATQL

Variants of: B1
Assay: raw area under fraction-flipped curve 0-4 h after induction (AUC4h, not background-subtracted), DNA-recorder readout of cleavage of the substrate (dimensionless); higher = more cleavage of the substrate by the protease variant
Conditions: temperature: 34 °C; time window: 0-4 h after rhamnose induction
Procedure: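 In vivo DNA recorder in E. coli TOP10(DE3) ΔrhaA at 34 °C. Each TEVp single-site mutant (parent TEVp 0) is paired with a single-site variant of the 7-mer TEVs (canonical ENLYFQ|S). The substrate sits between flexible linkers in a Bxb1-sfGFP-TEVs-SsrA fusion, so cleavage stabilises Bxb1 and speeds flipping of a recombination array, read by NGS. The value is the raw area under the fraction-flipped curve over 0-4 h after rhamnose induction (AUC4h), with ≥20 reads per time point. It is not background-subtracted; inactive controls average about 0.047.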
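Note: Bxb1 expression induced with 0.2% (w/v) L-rhamnose at OD600 near 0.5, cultures sampled hourly, flipped fraction per protease–substrate barcode pair counted by paired-end Illumina sequencing.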

| Variant | area with substrate ENLYFAS | area with substrate ENLYFCS | area with substrate ENLYFES | area with substrate ENLYFFS | area with substrate ENLYFHS | area with substrate ENLYFIS | area with substrate ENLYFKS | area with substrate ENLYFMS | area with substrate ENLYFNS | area with substrate ENLYFPS | area with substrate ENLYFRS | area with substrate ENLYFVS | area with substrate ENLYFWS | area with substrate ENLYFDS | area with substrate ENLYFGS | area with substrate ENLYFLS | area with substrate ENLYFTS | area with substrate ENLYFYS | area with substrate ENLYFSS |
| --- | --- | --- | --- | --- | --- | --- | --- | --- | --- | --- | --- | --- | --- | --- | --- | --- | --- | --- | --- |
| P225G | 0.0623 | 0.0598 | 0.071 | 0.0528 | 0.0879 | 0.0597 | 0.052 | 0.0635 | 0.0547 | 0.0649 | 0.0409 | 0.0535 | 0.0553 |  |  |  |  |  |  |
| P225M | 0.0617 | 0.0654 | 0.0896 | 0.0749 |  | 0.0599 | 0.0633 | 0.0614 | 0.0691 | 0.061 |  | 0.0666 | 0.0584 | 0.0676 | 0.0499 | 0.0526 | 0.0582 | 0.0524 |  |
| M188A | 0.062 | 0.0697 | 0.0507 | 0.0756 |  |  | 0.0657 | 0.0645 |  | 0.0602 |  | 0.0521 |  |  | 0.0624 | 0.0661 | 0.0491 |  | 0.0617 |
| E224G | 0.0794 |  |  | 0.0641 | 0.016 | 0.0544 | 0.0656 | 0.0489 | 0.0492 | 0.0599 | 0.0631 | 0.0621 |  |  |  |  |  |  |  |
| E223W | 0.0597 | 0.0583 | 0.0469 | 0.0743 |  | 0.0544 | 0.0689 | 0.0597 | 0.0648 | 0.059 | 0.0424 | 0.053 | 0.0878 | 0.0646 | 0.0506 | 0.0543 | 0.0535 | 0.0583 |  |
| E223S | 0.0474 | 0.0754 |  | 0.0639 |  | 0.0613 |  | 0.0563 | 0.0614 | 0.0552 | 0.0668 |  | 0.0984 | 0.0671 | 0.0647 |  | 0.0519 | 0.0666 |  |
| E223V | 0.0512 | 0.0514 | 0.0588 | 0.0457 |  | 0.0693 |  | 0.0597 | 0.066 | 0.0568 |  | 0.0642 | 0.0542 | 0.0591 |  | 0.066 |  | 0.0535 | 0.0233 |
| F180K | 0.033 |  | 0.0501 |  |  | 0.0676 |  | 0.0581 | 0.0478 | 0.059 | 0.051 |  |  |  |  |  |  | 0.045 |  |
| F180M | 0.0624 |  |  | 0.0587 | 0.0574 | 0.065 |  | 0.0624 |  | 0.0599 | 0.0741 | 0.057 | 0.0663 | 0.0551 | 0.0475 |  |  | 0.0664 |  |
| H215P | 0.0604 | 0.0608 | 0.0511 | 0.0614 | 0.0527 | 0.0563 |  | 0.0609 |  | 0.052 |  | 0.046 |  | 0.0697 |  | 0.0553 | 0.0857 |  |  |
| I167C | 0.0393 |  |  | 0.0588 | 0.0593 | 0.0545 | 0.0581 | 0.0768 | 0.0622 | 0.0625 | 0.0542 | 0.0538 | 0.0558 |  |  | 0.0619 | 0.0494 | 0.0656 |  |
| S182Y | 0.0515 | 0.0563 | 0.0562 | 0.0553 |  | 0.0534 |  | 0.0548 |  | 0.0396 | 0.0425 | 0.0365 | 0.0437 | 0.0644 |  |  | 0.0663 | 0.0654 |  |
| V210H | 0.0571 | 0.0678 | 0.0659 | 0.0797 | 0.0529 | 0.0378 |  | 0.0547 |  | 0.0616 |  |  |  | 0.0693 |  | 0.0632 |  |  |  |
| M219N | 0.0573 | 0.0535 | 0.0546 |  |  | 0.0578 | 0.0416 | 0.0638 | 0.0845 | 0.0551 |  | 0.0645 | 0.0465 |  |  | 0.0647 | 0.062 |  |  |
